Experimental data reported in PubChem BioAssay AID1508642 (National Center for Advancing Translational Sciences (NCATS), 2021).
In all, about 43,000 compounds went through this assay and about 200 (0.47%) were called active. Inconclusive results (about 12%) are left out. Calls come from the whole dose curve; as a rule, active = well fitted cell-killing curve with a large enough effect; inconclusive = small, poorly fitted or top-dose-only effect, or effect the other way; inactive = flat fitted curve, though single readings scatter. Some of the results follow.

test: Cell viability qHTS assay in S16 Pmp22-F2sN cells; conditions: S16 Pmp22-F2sN Schwann cells viability, CellTiter-Glo, 24 h; series mostly up to 57.5 µM; activity change, negative = cytotoxicity: at the top concentration; note: nearly all actives have a fitted effect of over 65% in size
Method in brief: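 S16 Pmp22-F2sN Schwann cells (500-1,000/well) in phenol-red-free DMEM with 10% FBS received 23 nL compound by pin tool for 24 h at 37 °C. Viability was then read as CellTiter-Glo luminescence after 15 min at room temperature.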
% is set by controls: 0 for no effect and ±100 for the full control effect.

SMILES | activity change, negative = cytotoxicity
CCOCCCNC(=O)NC(C)c1c(-n2cccc2)sc2c1CCN(CC)C2 (configuration not stated) | inactive: 0.915%
COc1ccc(C(=O)NCCn2cc(SCC(=O)Nc3cccc(C)c3)c3ccccc32)cc1 | inactive: 3.68%
CCOC(=O)c1c(N)n(-c2cccc(OC)c2)c2nc3ccccc3nc12 | inactive: 2.54%
Cc1cccc(-n2ncc3c(Nc4ccc(Oc5ccc(Cl)cc5)cc4)ncnc32)c1 | inactive: 16.7%
COCCc1nn2c(=O)cc(COC(=O)c3ccc(OC)c(OC)c3)nc2s1 | inactive: 3.26%
Cc1oc2ncn(CC(C)C)c(=O)c2c1C(=O)N1CCN(c2cccc(C(F)(F)F)c2)CC1 | inactive: -0.477%
CCOC(=O)C1CCN(C(=O)Cn2c(=O)cc(C)c3c(C)nn(C)c32)CC1 | inactive: 0.501%
COc1ccc(CNC(=O)c2cc3c(=O)[nH]c4ccccc4c3s2)cc1 | inactive: -13.1%
CCOC(=O)c1ccccc1NC(=O)CCOc1ccccc1 | inactive: 0.326%
Cc1cccc(N2CCN(C(=O)NCc3noc4ccccc34)CC2)c1C | inactive: -15.8%
Cc1cc(C)c(CSc2nnc(C)n3c2cc2occc23)c(C)c1 | inactive: -1.18%
CCN(Cc1ccccc1)C(=O)c1nc(-c2cccc(F)c2)n2c1CCCCC2 | inactive: -6.43%
COCCCNC(=O)C1CCCN(C(=O)c2cnn(-c3ccc(F)cc3)c2-n2cccc2)C1 (configuration not stated) | inactive: 1.19%
Cc1ccc(SCc2nc(-c3ccc(C(=O)NCc4ccc(Cl)cc4)cc3)oc2C)cc1 | inactive: 15.6%
O=C(NC1CCCCC1)c1cc(Nc2cccc(C(F)(F)F)c2)nc2ccccc12 | inactive: 6.15%
COc1cc(C(=O)Nc2nc3nc(-c4ccccc4)cc(=O)n3[nH]2)cc(OC)c1OC | inactive: 8.38%
Cc1ccn2c(=O)cc(CSc3nnc(NC(=O)c4ccccc4Cl)s3)nc2c1 | inactive: -0.0107%
CCn1cc(C(=O)N2CCN(c3cc(C)ccc3C)CC2)c(=O)c2cc(S(=O)(=O)N3CCOCC3)ccc21 | inactive: 0.794%
COc1ccc(Cl)cc1NC(=O)Cn1c(=O)n(Cc2ccco2)c(=O)c2cccnc21 | inactive: 1.92%
O=C(NC1CCCCC1)c1cc2c(Cl)nc3ccccc3c2s1 | inactive: 10.8%
CCOc1ccc(NC(=O)C(NS(=O)(=O)c2cccc3nsnc23)c2ccccc2)cc1 (configuration not stated) | inactive: 0.539%
COc1ccccc1CNC(=O)C(=O)NCC(c1ccco1)S(=O)(=O)c1cccs1 (configuration not stated) | inactive: -6.77%
OCCCc1nc2ccccc2n1CCCCOc1ccccc1 | inactive: -21.6%
Cc1cccc(-c2noc(CN(C(=O)COc3ccc(Br)cc3C)C(C)C)n2)c1 | inactive: 6.99%
Cc1ccc(CCNC(=O)c2cc3sccc3n2Cc2ccc(C)cc2)cc1 | inactive: 5.87%

SMILES | activity change, negative = cytotoxicity
Cc1c(Cl)ccc2sc(NC(=O)c3ccc(S(=O)(=O)N4CCCc5ccccc54)cc3)nc12 | inactive: 11.8%
CCCc1cnc2c(c1SCC(=O)N(C)c1ccccc1)c(=O)n(C)c(=O)n2C | inactive: 1.23%
COc1cccc(NC(=O)C2CCCN(S(=O)(=O)c3c(C)[nH]c(=O)[nH]c3=O)C2)c1 (configuration not stated) | inactive: -3.69%
O=C(Nc1ccc(Br)c2cccnc12)c1cccc2ccccc12 | inactive: 14.4%
CCN(c1cc(C)cc(C)c1)S(=O)(=O)c1nnc(NC(=O)C2CCCCC2)s1 | inactive: 1.12%
Cc1cc(C)cc(NC(=O)CCC(=O)N2Cc3ccccc3Oc3ncccc32)c1 | inactive: -7.97%
CCOc1ccc(NC(=O)Cn2c(=O)n(Cc3ccco3)c(=O)c3oc4ccccc4c32)cc1 | inactive: -0.338%
CCc1ccccc1NC(=O)c1nnn(-c2ccc(F)cc2)c1C | inactive: 20.2%
CC1CCN(S(=O)(=O)c2ccc3c(c2)oc(=O)n3CC(=O)NCc2ccc(F)cc2)CC1 | inactive: -16.3%
Cc1cc(C)cc(-n2c(SCC(=O)N3CCCCC3)nc3c([nH]c4ccccc43)c2=O)c1 | inactive: 16.5%
CCOc1cc(-c2ccc(OC(=O)c3ccccc3F)cc2)cc(=O)c2c(C)oc(C)c12 | inactive: 11.5%
Cc1cc(C)nc(NS(=O)(=O)c2ccc(NC(=O)COc3ccc(Cl)cc3C)cc2)n1 | inactive: 1.48%
CCOc1ccc(C(=O)Nc2cc(-c3nc4ccccc4o3)ccc2C)cc1Cl | inactive: -0.493%
O=C(CSc1nccn1Cc1ccccc1)NCc1ccc(F)cc1 | inactive: 3.77%
CC1CN(C(=O)Nc2ccc(C(=O)NCCc3ccccc3)cc2)c2ccccc2S1 (configuration not stated) | inactive: -18.3%
Clc1cccc(N2CCN(c3nc4ccccc4n4cnnc34)CC2)c1 | inactive: 8.14%
COc1ccc(NC(=O)CCc2nnc3n(C)c(=O)c4sccc4n23)cc1 | inactive: 6.16%
Cc1ccc2nc(-c3ccsc3)c(Nc3ccccc3C)n2c1 | inactive: 5.66%
Cc1nc2nncn2c(N2CCN(c3ccccc3)CC2)c1C | inactive: -4.2%
COc1ccccc1/C=C/c1nc(C#N)c(N2CCCCC2)o1 | inactive: -29.5%
COCCNC(=O)c1cnn(-c2ccc(C)cc2C)c1C1CCN(C(=O)OC(C)(C)C)CC1 | inactive: -2.51%
Cc1ccccc1Cn1c(C(=O)O)c(CNCc2cccc(F)c2)c2ccccc21 | inactive: 1.34%
COC(=O)c1scc(-c2ccccc2)c1S(=O)(=O)Nc1ccccc1 | inactive: -6.13%
Cn1cc(CN(C(=O)Nc2ccc(Cl)c(Cl)c2)C2CCCCC2)c2ccccc21 | inactive: 19.9%
Cc1ccc(-c2cc(C(F)(F)F)n3nc(C(=O)Nc4ccc(Cl)cc4Cl)cc3n2)cc1 | inactive: 5.46%

SMILES | activity change, negative = cytotoxicity
O=C1c2ccccc2C(=O)C1(c1ccccc1)N1CCN(c2cccc(Cl)c2)CC1 | inactive: 3.9%
O=C(NCc1ccc(F)cc1)c1ccc(CSCc2cccc(Cl)c2)o1 | inactive: 0.557%
COCCNC(=O)Cc1ccc(NC(=O)N2CCCCc3ccccc32)cc1 | inactive: 28.1%
CC(=O)Nc1ccc(S(=O)(=O)NCC2CCC(C(=O)NCCc3ccccc3)CC2)cc1 (configuration not stated) | inactive: 0.46%
Cc1ccc(CNC(=O)c2cc3sccc3n2Cc2ccc(Cl)cc2)cc1 | inactive: 12.9%
CCCn1c(=O)c2sccc2n2c(CCCC(=O)NCCc3ccc(Cl)cc3)nnc12 | inactive: 19.5%
CC(CCc1ccccc1)NC(=O)Cn1ncc2c3ccccc3n(Cc3ccc(F)cc3)c2c1=O (configuration not stated) | inactive: -2.55%
COc1cccc(N2CC(NC(=O)C(c3ccccc3)c3ccccc3)CC2=O)c1 (configuration not stated) | inactive: -4.04%
Cc1ccc(NC(=O)CC(C)S(=O)(=O)c2ccc3c(c2)NC(=O)CO3)c(C)c1 (configuration not stated) | inactive: 7.88%
COCC(=O)Oc1c(Sc2ccc(C)cc2)c(C)nn1C(C)(C)C | inactive: 2.69%
COc1cc(-c2ccno2)ccc1S(=O)(=O)N1CCN(c2cc(C)ccc2C)CC1 | inactive: 8.33%
COc1ccc(NS(=O)(=O)c2cc3[nH]c(=O)c(=O)[nH]c3cc2C)cc1Cl | inactive: 10.7%
CCC(=O)N1CCc2cc(Br)cc(S(=O)(=O)CCC(=O)NCCc3ccc(OC)c(OC)c3)c21 | inactive: -0.204%
CCOc1ccc(/C=C/c2nc(C#N)c(N3CCN(c4ccc(OC)cc4)CC3)o2)cc1 | inactive: 0.548%
Cn1cc(S(=O)(=O)N2CCCCCC2)cc1C(=O)N1CCN(c2ccc(F)cc2)CC1 | inactive: 7.84%
CCOc1ccc(NC(=O)C(=O)NCCc2csc(-c3ccc(F)cc3)n2)cc1 | inactive: 2.13%
CCN(CC)CC(C)CNC(=O)CN1C(=O)CSc2ccc(S(=O)(=O)N3CCOCC3)cc21 (configuration not stated) | inactive: 12.8%
CN(C(=O)C1CCCN(c2ncnc3c2nc2n3CCCCC2)C1)c1ccccc1F (configuration not stated) | inactive: -18.1%
COc1cc(OC)c(NC(=O)CN2C(=O)CCn3nc(-c4cccn4C)cc32)cc1Cl | inactive: 6%
CC(C)OCCCn1c(SCc2ccccc2C#N)nc2c(sc3ccccc32)c1=O | inactive: 10.9%
Cc1c(Cl)cccc1NC(=O)CSc1ncnc2c1sc1ccccc12 | inactive: 3.42%
COc1cc(NC(=O)CCn2c(-c3ccccc3)cc(C(C)=O)c2C)cc(OC)c1 | inactive: -14.3%
Cc1cc(C)c(NC(=O)CSc2ccnc(=O)[nH]2)c(C)c1 | inactive: -1.16%
O=C(COc1ccccc1)NCc1ccc2c(c1)CCN2C(=O)c1ccc(F)cc1 | inactive: 0.0237%
Cc1ccc(-n2ncc3c(N4CCCCCC4)ncnc32)cc1 | inactive: -7.96%

SMILES | activity change, negative = cytotoxicity
Cc1cc(OCC(=O)Nc2ccc(-c3nc4cc(Cl)ccc4o3)cc2)cc(C)c1Cl | inactive: 4.6%
NS(=O)(=O)c1ccc(CCNC(=O)C2COc3ccccc3C2)cc1 (configuration not stated) | inactive: 2.65%
CCc1ccc(C2CC(=O)c3c([nH]c(C(=O)OCC4CCCCC4)c3C)C2)cc1 (configuration not stated) | inactive: 1.02%
CCCC(=O)Nc1cc(C)c(O)c(-c2nc3ncccc3o2)c1 | inactive: 24.8%
COc1ccc(Cl)cc1NC(=O)c1ccc2nc(Cc3ccccc3)oc2c1 | inactive: 7.71%
CCCCNC(=O)C1CCCN(Cc2nc(-c3ccc(Cl)cc3)oc2C)C1 (configuration not stated) | inactive: 7.86%
CCc1ccc(C(=O)c2cn(CC(=O)Nc3ccc(F)c(F)c3)c3cc(OC)c(OC)cc3c2=O)cc1 | inactive: -23.9%
Cc1ccc(-n2nc(C(=O)N3CCN(c4cc(Cl)ccc4C)CC3)c(=O)n(C)c2=O)cc1 | inactive: -4.39%
CCOc1cccc2cc(-c3nc(-c4ccccc4C)no3)c(=O)oc12 | inactive: -1.85%
Cc1ccc(Oc2c(C(F)(F)F)oc3c(CN4CCCCC4)c(O)ccc3c2=O)cc1 | inactive: 9.6%
O=C(Nc1ccc(Cl)cc1)C1CCCN(S(=O)(=O)c2ccc3[nH]c(=O)ccc3c2)C1 (configuration not stated) | inactive: 10.2%
Cc1cc(F)ccc1NC(=O)CCS(=O)(=O)c1ccc2c(c1)NC(=O)CO2 | inactive: 0.475%
CCOC(=O)c1cccc(NC(=O)c2oc3c(c2C)-c2[nH]ncc2CC3)c1 | inactive: -0.0926%
CCC(C(=O)Nc1ccc(C(=O)OC)cc1)n1c(=O)c(-c2ccccc2NC(C)=O)nc2ccccc21 (configuration not stated) | inactive: -2.57%
COc1cc(CN(C(=O)Nc2ccccc2)c2ccccn2)cc(OC)c1OC | inactive: -0.692%
CCc1ccccc1NS(=O)(=O)c1ccc2[nH]cc(C(=O)N3CCCCC3)c(=O)c2c1 | inactive: 4.94%
Cc1nc2c(-c3ccccc3)c(C)nn2c(C)c1CCC(=O)NC(C)c1ccccc1 (configuration not stated) | inactive: 12.8%
COc1cccc(CNC(=O)C2CCCN(S(=O)(=O)c3ccc4c(ccn4C)c3)C2)c1 (configuration not stated) | inactive: -27%
Cn1c(=O)n(-c2ccc(F)c(Cl)c2)c(=O)c2sc3ccccc3c21 | inactive: 4%
CCOC(=O)c1c(Nc2ccc(C)cc2)nnc(-c2ccccc2)c1-c1ccccc1 | inactive: -24.4%
CC1=C(C(=O)OC2CCCCCC2)C(c2c(F)cccc2Cl)CC(=O)N1 (configuration not stated) | inactive: 19.7%
CCN(CCCNC(=O)c1c(C)oc2ncn(CC(C)C)c(=O)c12)Cc1ccccc1 | inactive: -17.5%
